The supplement of paper PMC12230231

System: SIVsab (simian immunodeficiency virus of sabaeus monkeys), single-cycle GFP reporter, in CRFK cells
Test: enrichment among uninfected cells over input (fold); higher = stronger restriction
Conditions: library: human / rhesus combinations
Procedure: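 Pools of CRFK cells expressing variants of the TRIM5α v1 loop were challenged with the single-cycle reporter, sorted by GFP and sequenced; mean of two replicates.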

Row | Sequence | enrichment
1 | MASGILVNVKEEVTCPICLELLTQPLSLDCGHSFCQACLTANHKKSMLDKGESSCPVCRISYQPENIRPNRHVANIVEKLREVKLSPEGQKVDHCARHGEKLLLFCQEDGKVICWLCERSQEHRGHHTFLTEEVAREYQVKLQAALEMLRQKQQEAEELEADIREEKASWKTQIQYDKTNVLADFEQLRDILDWEESNELQNLEKEEEDILKSLTNSETEMVQQTQSLRELISDLEHRLQGSVMELLQGVDGVIKRTENVTLKKPETFPKNQRRVFRAPDLKGMLEVFRELTDVRRYWVDVTVAPNNISCAVISEDKRQVSSPKPQIIYGAPGTRFPTFVNFNYCTGILGSQSITSGKHYWEVDVSKKTAWILGVCAGFQPDAMCNIEKNENYQPKYGYWVIGLEEGVKCSAFQDSSFHTPSVPFIVPLSVIICPDRVGVFLDYEACTVSFFNITNHGFLIYKFSHCSFSQPVFPYLNPRKCGVPMTLCSPSS [human TRIM5α, 330-340 = GAPGTRFPTFV] | 0.0931 ± 0.13
2 | MASGILVNVKEEVTCPICLELLTQPLSLDCGHSFCQACLTANHKKSMLDKGESSCPVCRISYQPENIRPNRHVANIVEKLREVKLSPEGQKVDHCARHGEKLLLFCQEDGKVICWLCERSQEHRGHHTFLTEEVAREYQVKLQAALEMLRQKQQEAEELEADIREEKASWKTQIQYDKTNVLADFEQLRDILDWEESNELQNLEKEEEDILKSLTNSETEMVQQTQSLRELISDLEHRLQGSVMELLQGVDGVIKRTENVTLKKPETFPKNQRRVFRAPDLKGMLEVFRELTDVRRYWVDVTVAPNNISCAVISEDKRQVSSPKPQIIYGAPGTLYQSLVNFNYCTGILGSQSITSGKHYWEVDVSKKTAWILGVCAGFQPDAMCNIEKNENYQPKYGYWVIGLEEGVKCSAFQDSSFHTPSVPFIVPLSVIICPDRVGVFLDYEACTVSFFNITNHGFLIYKFSHCSFSQPVFPYLNPRKCGVPMTLCSPSS [human TRIM5α, 330-340 = GAPGTLYQSLV] | 0.0984 ± 0.12
3 | MASGILVNVKEEVTCPICLELLTQPLSLDCGHSFCQACLTANHKKSMLDKGESSCPVCRISYQPENIRPNRHVANIVEKLREVKLSPEGQKVDHCARHGEKLLLFCQEDGKVICWLCERSQEHRGHHTFLTEEVAREYQVKLQAALEMLRQKQQEAEELEADIREEKASWKTQIQYDKTNVLADFEQLRDILDWEESNELQNLEKEEEDILKSLTNSETEMVQQTQSLRELISDLEHRLQGSVMELLQGVDGVIKRTENVTLKKPETFPKNQRRVFRAPDLKGMLEVFRELTDVRRYWVDVTVAPNNISCAVISEDKRQVSSPKPQIIYQARGTRFTFPSLTNFNYCTGILGSQSITSGKHYWEVDVSKKTAWILGVCAGFQPDAMCNIEKNENYQPKYGYWVIGLEEGVKCSAFQDSSFHTPSVPFIVPLSVIICPDRVGVFLDYEACTVSFFNITNHGFLIYKFSHCSFSQPVFPYLNPRKCGVPMTLCSPSS [human TRIM5α, 330-340 = QARGTRFTFPSLT] | 0.437 ± 0.017
4 | MASGILVNVKEEVTCPICLELLTQPLSLDCGHSFCQACLTANHKKSMLDKGESSCPVCRISYQPENIRPNRHVANIVEKLREVKLSPEGQKVDHCARHGEKLLLFCQEDGKVICWLCERSQEHRGHHTFLTEEVAREYQVKLQAALEMLRQKQQEAEELEADIREEKASWKTQIQYDKTNVLADFEQLRDILDWEESNELQNLEKEEEDILKSLTNSETEMVQQTQSLRELISDLEHRLQGSVMELLQGVDGVIKRTENVTLKKPETFPKNQRRVFRAPDLKGMLEVFRELTDVRRYWVDVTVAPNNISCAVISEDKRQVSSPKPQIIYQARGTLYTFPSLVNFNYCTGILGSQSITSGKHYWEVDVSKKTAWILGVCAGFQPDAMCNIEKNENYQPKYGYWVIGLEEGVKCSAFQDSSFHTPSVPFIVPLSVIICPDRVGVFLDYEACTVSFFNITNHGFLIYKFSHCSFSQPVFPYLNPRKCGVPMTLCSPSS [human TRIM5α, 330-340 = QARGTLYTFPSLV] | 0.158 ± 0.0066
5 | MASGILVNVKEEVTCPICLELLTQPLSLDCGHSFCQACLTANHKKSMLDKGESSCPVCRISYQPENIRPNRHVANIVEKLREVKLSPEGQKVDHCARHGEKLLLFCQEDGKVICWLCERSQEHRGHHTFLTEEVAREYQVKLQAALEMLRQKQQEAEELEADIREEKASWKTQIQYDKTNVLADFEQLRDILDWEESNELQNLEKEEEDILKSLTNSETEMVQQTQSLRELISDLEHRLQGSVMELLQGVDGVIKRTENVTLKKPETFPKNQRRVFRAPDLKGMLEVFRELTDVRRYWVDVTVAPNNISCAVISEDKRQVSSPKPQIIYGARGTLYTFPTLTNFNYCTGILGSQSITSGKHYWEVDVSKKTAWILGVCAGFQPDAMCNIEKNENYQPKYGYWVIGLEEGVKCSAFQDSSFHTPSVPFIVPLSVIICPDRVGVFLDYEACTVSFFNITNHGFLIYKFSHCSFSQPVFPYLNPRKCGVPMTLCSPSS [human TRIM5α, 330-340 = GARGTLYTFPTLT] | 0.0612 ± 0.085
6 | MASGILVNVKEEVTCPICLELLTQPLSLDCGHSFCQACLTANHKKSMLDKGESSCPVCRISYQPENIRPNRHVANIVEKLREVKLSPEGQKVDHCARHGEKLLLFCQEDGKVICWLCERSQEHRGHHTFLTEEVAREYQVKLQAALEMLRQKQQEAEELEADIREEKASWKTQIQYDKTNVLADFEQLRDILDWEESNELQNLEKEEEDILKSLTNSETEMVQQTQSLRELISDLEHRLQGSVMELLQGVDGVIKRTENVTLKKPETFPKNQRRVFRAPDLKGMLEVFRELTDVRRYWVDVTVAPNNISCAVISEDKRQVSSPKPQIIYGAPGTRFPSFTNFNYCTGILGSQSITSGKHYWEVDVSKKTAWILGVCAGFQPDAMCNIEKNENYQPKYGYWVIGLEEGVKCSAFQDSSFHTPSVPFIVPLSVIICPDRVGVFLDYEACTVSFFNITNHGFLIYKFSHCSFSQPVFPYLNPRKCGVPMTLCSPSS [human TRIM5α, 330-340 = GAPGTRFPSFT] | 0.00125 ± 5.5e-05

Same assay, conditions: library: insertions and deletions

Row | Sequence | enrichment
7 | MASGILVNVKEEVTCPICLELLTQPLSLDCGHSFCQACLTANHKKSMLDKGESSCPVCRISYQPENIRPNRHVANIVEKLREVKLSPEGQKVDHCARHGEKLLLFCQEDGKVICWLCERSQEHRGHHTFLTEEVAREYQVKLQAALEMLRQKQQEAEELEADIREEKASWKTQIQYDKTNVLADFEQLRDILDWEESNELQNLEKEEEDILKSLTNSETEMVQQTQSLRELISDLEHRLQGSVMELLQGVDGVIKRTENVTLKKPETFPKNQRRVFRAPDLKGMLEVFRELTDVRRYWVDVTVAPNNISCAVISEDKRQVSSPKPQIIYGARGTTRYQTFVNFNYCTGILGSQSITSGKHYWEVDVSKKTAWILGVCAGFQPDAMCNIEKNENYQPKYGYWVIGLEEGVKCSAFQDSSFHTPSVPFIVPLSVIICPDRVGVFLDYEACTVSFFNITNHGFLIYKFSHCSFSQPVFPYLNPRKCGVPMTLCSPSS [human TRIM5α, 1-codon duplication at 334] | 0.975 ± 0.52
8 | MASGILVNVKEEVTCPICLELLTQPLSLDCGHSFCQACLTANHKKSMLDKGESSCPVCRISYQPENIRPNRHVANIVEKLREVKLSPEGQKVDHCARHGEKLLLFCQEDGKVICWLCERSQEHRGHHTFLTEEVAREYQVKLQAALEMLRQKQQEAEELEADIREEKASWKTQIQYDKTNVLADFEQLRDILDWEESNELQNLEKEEEDILKSLTNSETEMVQQTQSLRELISDLEHRLQGSVMELLQGVDGVIKRTENVTLKKPETFPKNQRRVFRAPDLKGMLEVFRELTDVRRYWVDVTVAPNNISCAVISEDKRQVSSPKPQIIYGARGTRYQTFVNFNYCTFVNFNYCTGILGSQSITSGKHYWEVDVSKKTAWILGVCAGFQPDAMCNIEKNENYQPKYGYWVIGLEEGVKCSAFQDSSFHTPSVPFIVPLSVIICPDRVGVFLDYEACTVSFFNITNHGFLIYKFSHCSFSQPVFPYLNPRKCGVPMTLCSPSS [human TRIM5α, 8-codon duplication at 339] | 0.231 ± 0.0092
9 | MASGILVNVKEEVTCPICLELLTQPLSLDCGHSFCQACLTANHKKSMLDKGESSCPVCRISYQPENIRPNRHVANIVEKLREVKLSPEGQKVDHCARHGEKLLLFCQEDGKVICWLCERSQEHRGHHTFLTEEVAREYQVKLQAALEMLRQKQQEAEELEADIREEKASWKTQIQYDKTNVLADFEQLRDILDWEESNELQNLEKEEEDILKSLTNSETEMVQQTQSLRELISDLEHRLQGSVMELLQGVDGVIKRTENVTLKKPETFPKNQRRVFRAPDLKGMLEVFRELTDVRRYWVDVTVAPNNISCAVISEDKRQVSSPKPQIIYGARGTRYQTFVNRYQTFVNFNYCTGILGSQSITSGKHYWEVDVSKKTAWILGVCAGFQPDAMCNIEKNENYQPKYGYWVIGLEEGVKCSAFQDSSFHTPSVPFIVPLSVIICPDRVGVFLDYEACTVSFFNITNHGFLIYKFSHCSFSQPVFPYLNPRKCGVPMTLCSPSS [human TRIM5α, 7-codon duplication at 335] | 0.36 ± 0.3
10 | MASGILVNVKEEVTCPICLELLTQPLSLDCGHSFCQACLTANHKKSMLDKGESSCPVCRISYQPENIRPNRHVANIVEKLREVKLSPEGQKVDHCARHGEKLLLFCQEDGKVICWLCERSQEHRGHHTFLTEEVAREYQVKLQAALEMLRQKQQEAEELEADIREEKASWKTQIQYDKTNVLADFEQLRDILDWEESNELQNLEKEEEDILKSLTNSETEMVQQTQSLRELISDLEHRLQGSVMELLQGVDGVIKRTENVTLKKPETFPKNQRRVFRAPDLKGMLEVFRELTDVRRYWVDVTVAPNNISCAVISEDKRQVSSPKPQIIYGARGTRYQGTRYQTFVNFNYCTGILGSQSITSGKHYWEVDVSKKTAWILGVCAGFQPDAMCNIEKNENYQPKYGYWVIGLEEGVKCSAFQDSSFHTPSVPFIVPLSVIICPDRVGVFLDYEACTVSFFNITNHGFLIYKFSHCSFSQPVFPYLNPRKCGVPMTLCSPSS [human TRIM5α, 5-codon duplication at 333] | 0.766 ± 0.044
11 | MASGILVNVKEEVTCPICLELLTQPLSLDCGHSFCQACLTANHKKSMLDKGESSCPVCRISYQPENIRPNRHVANIVEKLREVKLSPEGQKVDHCARHGEKLLLFCQEDGKVICWLCERSQEHRGHHTFLTEEVAREYQVKLQAALEMLRQKQQEAEELEADIREEKASWKTQIQYDKTNVLADFEQLRDILDWEESNELQNLEKEEEDILKSLTNSETEMVQQTQSLRELISDLEHRLQGSVMELLQGVDGVIKRTENVTLKKPETFPKNQRRVFRAPDLKGMLEVFRELTDVRRYWVDVTVAPNNISCAVISEDKRQVSSPKPQIIYGARGTRGTRYQTFVNFNYCTGILGSQSITSGKHYWEVDVSKKTAWILGVCAGFQPDAMCNIEKNENYQPKYGYWVIGLEEGVKCSAFQDSSFHTPSVPFIVPLSVIICPDRVGVFLDYEACTVSFFNITNHGFLIYKFSHCSFSQPVFPYLNPRKCGVPMTLCSPSS [human TRIM5α, 3-codon duplication at 332] | 0.957 ± 0.058
12 | MASGILVNVKEEVTCPICLELLTQPLSLDCGHSFCQACLTANHKKSMLDKGESSCPVCRISYQPENIRPNRHVANIVEKLREVKLSPEGQKVDHCARHGEKLLLFCQEDGKVICWLCERSQEHRGHHTFLTEEVAREYQVKLQAALEMLRQKQQEAEELEADIREEKASWKTQIQYDKTNVLADFEQLRDILDWEESNELQNLEKEEEDILKSLTNSETEMVQQTQSLRELISDLEHRLQGSVMELLQGVDGVIKRTENVTLKKPETFPKNQRRVFRAPDLKGMLEVFRELTDVRRYWVDVTVAPNNISCAVISEDKRQVSSPKPQIIYGAIYGARGTRYQTFVNFNYCTGILGSQSITSGKHYWEVDVSKKTAWILGVCAGFQPDAMCNIEKNENYQPKYGYWVIGLEEGVKCSAFQDSSFHTPSVPFIVPLSVIICPDRVGVFLDYEACTVSFFNITNHGFLIYKFSHCSFSQPVFPYLNPRKCGVPMTLCSPSS [human TRIM5α, 4-codon duplication at 328] | 0.573 ± 0.44

± gives the standard deviation of the averaged measurements. Restriction of a single-cycle SIVsab GFP reporter by TRIM5α v1-loop variants in CRFK cells. Human variants: read share among cells still uninfected after two challenges over input, higher = gained restriction. Rhesus variants: share among infected cells over input, higher = lost restriction. Reporter dose not given per row. No active / inactive call per row; the paper calls a change when both replicates lie above its controls (mean + 2 SD of stop or wild-type variants, or the top frameshift score). Residues outside the varied loop are taken from Swiss-Prot. The paper reads the human single-substitution scores as noise; they and the rhesus combinations repeat poorly (rank correlation 0.3 to 0.4), indel scores repeat only for the top variants, rhesus substitutions well (0.9).
